# Where “and” joins values, the source holds several entries; their conditions need not be identical. Equal entries are not always repeated. The inconclusive results got no clear call from the source; some entries with a clear call stand among them for comparison. Entries that show only a call come without a potency. For part of these data: Where the call is inconclusive, the potency comes from a doubtful curve fit. Calls of active or inactive are those of the source. Unless noted, the call rests on the fitted dose curve; in most records, active means well fitted curve in the direction sought with a large enough effect in the repeat runs; inconclusive means weak or mixed curves; inactive means no such curve, though single readings can be large; an effect the other way counts as inactive or inconclusive.
# What was measured:
# [1] = qHTS RealTime-Glo MT Cell Viability Assay in HEK293 cells - 32 hour (AID 1224868); further: nearly all actives have a fitted effect of over 50% in size; further: potency means the concentration at half of the fitted maximal effect
# Outline: (§1)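 Luminescence generated by NanoLuc from substrate produced by living HEK293 cells served as the viability signal. Each value reflects the reading at its stated time point during continuous 40 h compound exposure at 37 C.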
# [2] = target: Peroxisome proliferator-activated receptor delta (Homo sapiens) (UniProt Q03181); assay: qHTS assay to identify small molecule agonists of the peroxisome proliferator-activated receptor delta (PPARd) signaling pathway (AID 743212; calls by dose curve; further: potency means the concentration at half of the fitted maximal effect); conditions: HEK293H PPARd-UAS-bla, beta-lactamase FRET ratio, 17 h; activation: at 62.6 µM (top of the series) unless noted
# Outline: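 Cells expressing a UAS-driven beta-lactamase reporter (PPARd-bla HEK293H) were given test compounds after a 5 h settle and kept at 37 C. Reporter activity was then measured as FRET fluorescence using LiveBLAzer B/G substrate.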
# [3] = A CellTox Green Cytotoxicity Assay to monitor cytotoxicity in HepG2 cells - 40 hour (AID 1224879); further: nearly all actives have a fitted effect of over 40% in size; further: potency means the concentration at half of the fitted maximal effect
# Outline: (§2)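 First, HepG2 cells (600/well) mixed with reagent were plated; second, after 5 h at 37 C they received compounds via pintool; third, fluorescence was measured at 0 h through 40 h at 8 h intervals.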
# [4] = A CellTox Green Cytotoxicity Assay to monitor cytotoxicity in HEK293 cells - 32 hour (AID 1224881); further: nearly all actives have a fitted effect of over 40% in size; further: potency means the concentration at half of the fitted maximal effect
# Outline: (§3)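 Dead-cell fluorescence measured kinetically: asymmetric cyanine dye, HEK293, 600 cells/well, 5 h settle, 23 nL cpd/DMSO, 37 C, reads 0–40 h every 8 h.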
# [5] = A CellTox Green Cytotoxicity Assay to monitor cytotoxicity in HEK293 cells - 8 hour (AID 1224884); further: nearly all actives have a fitted effect of over 35% in size; further: potency means the concentration at half of the fitted maximal effect
# Outline: as §3
# [6] = qHTS RealTime-Glo MT Cell Viability Assay in HEK293 cells - 24 hour (AID 1224886); further: nearly all actives have a fitted effect of over 50% in size; further: potency means the concentration at half of the fitted maximal effect
# Outline: as §1
# [7] = A CellTox Green Cytotoxicity Assay to monitor cytotoxicity in HepG2 cells - 32 hour (AID 1224883); further: nearly all actives have a fitted effect of over 50% in size; further: potency means the concentration at half of the fitted maximal effect
# Outline: as §2
# [8] = qHTS assay to identify small molecule antagonists of the estrogen receptor beta (ER-beta) signaling pathway - cell viability counter screen (AID 1259382);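 further: HEK293T cells carrying ER-beta-UAS-bla reporter stimulated with estradiol; nearly all actives have a fitted effect of over 55% in size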
# Outline: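 Viability is scored by CellTiter-Glo luminescence (30 min, room temperature) in ER-beta-UAS-bla HEK293T wells already read for reporter fluorescence. Compound exposure lasts 16 hr at 37C alongside 1nM 17-beta-estradiol in charcoal-stripped serum medium.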
# [9] = target: Voltage-gated inwardly rectifying potassium channel KCNH2 (Homo sapiens) (UniProt Q12809); assay: Human Ether-a-go-go-Related Gene (hERG) channel small molecule antagonists: fluorescence cell-based qHTS assay (AID 1671200); further: nearly all actives have a fitted effect of over 50% in size; further: potency means the concentration at half of the fitted maximal effect;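 on activity change, negative = inhibition: hERG-expressing U2OS cells given a thallium stimulus after FluxOR II dye loading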
# Outline: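 Measured: Tl+ flux via fluorescence (480/540 nm) in hERG-expressing U2OS cells after 1 h dye loading at room temperature.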
# [10] = Human pregnane X receptor (PXR) small molecule agonists, qHTS cell viability counter screen (AID 1346977)
# Outline: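 Readout is CellTiter-Fluor fluorescence from PXR-Luc HepG2 cells. Plated cells rested 5hr, then were treated with compounds for 24hr at 37C and 5% CO2, with reagent present during the last hour.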
# [11] = Caspase-3/7 induction in CHO-K1 cells by small molecules, qHTS cell viability counter screen (AID 1346979); further: nearly all actives have a fitted effect of over 35% in size; further: potency means the concentration at half of the fitted maximal effect
# Outline: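 To flag cytotoxic compounds, treated CHO-K1 wild-type cells were given CellTiter-Fluor at 16hr and read fluorescently after 1hr at 37C; the caspase-3/7 luminescence was measured in these same wells.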
# [12] = target: Thyrotropin receptor (Homo sapiens) (UniProt P16473); assay: qHTS assay to identify small molecule antagonists of the thyroid stimulating hormone receptor (TSHR) signaling pathway (AID 1259385; calls by dose curve; further: potency means the concentration at half of the fitted maximal effect; nearly all actives have a fitted effect of over 20% in size); conditions: TSHR-HEK293 cAMP HTRF, TSH-stimulated antagonist mode; activity change, negative = inhibition: at 92.4 µM (top of the series)
# Outline: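 TSHR-HEK293 cells were plated and held 18 h at 37C/5% CO2, then given compound plus Ro20-1724 and stimulated with TSH at 1.5 ng/mL final. After 30 min at room temperature, cAMP was detected with cAMP-d2/anti-cAMP-cryptate (1 h) by fluorescence.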
# [13] = qHTS assay to identify small molecule agonists of H2AX - cell viability counter screen (AID 1224847; calls by dose curve; further: nearly all actives have a fitted effect of over 30% in size; further: potency means the concentration at half of the fitted maximal effect)
# Outline: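 After overnight plating of 1000 CHO-K1 cells per well, a 15-concentration compound series was applied for 3 hr at 37C. Luminescence from CellTiter-Glo, read following 30 min at room temperature, reflected cell viability.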
# [14] = target: Nuclear receptor subfamily 1 group I member 2 (Homo sapiens) (UniProt O75469); assay: CYP3A4 induction through human pregnane X receptor (PXR) by small molecules, qHTS assay (AID 1346984); conditions: DPX-2 HepG2 PXR, CYP3A4-luciferin luminescence, 24 h; activation: at 46.1 µM (top of the series); further: nearly all actives have a fitted effect of over 40% in size
# Outline: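 Induction measured in HepG2-based DPX-2 cells co-expressing human PXR and a CYP3A4 promoter-driven luciferase. After a 24-hour compound exposure, cells received CYP3A4 luciferin substrate at 3uM final for 3 hours, and light output was then recorded.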
# [15] = target: Nuclear receptor subfamily 1 group I member 2 (Homo sapiens) (UniProt O75469); assay: Human pregnane X receptor (PXR) small molecule agonists, qHTS assay (AID 1346982); further: nearly all actives have a fitted effect of over 35% in size; further: potency means the concentration at half of the fitted maximal effect
# Outline: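 Reporter HepG2 cells expressing PXR-Luc are cultured in charcoal-stripped FBS (5%), treated with compounds for 24 hr at 37 C, and assayed by ONE-Glo luminescence after 30 min at room temperature.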
# [16] = target: Progesterone receptor (Homo sapiens) (UniProt P06401); assay: qHTS assay to identify small molecule antagonists of the progesterone receptor (PR) signaling pathway (AID 1346795; active means well fitted inhibition curve with a large enough effect in the signal ratio in the repeat runs, not every such curve was filed as active; inconclusive means weak or mixed curves; the % refers to the signal ratio); conditions: PR-UAS-bla HEK293T, beta-lactamase FRET ratio, 16 h; activity change, negative = inhibition: at 92.4 µM (top of the series) unless noted
# Outline: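 Inhibition of R5020-induced (1 nM final) beta-lactamase reporter signal in PR-UAS-bla HEK293T cells was scored by FRET fluorescence after overnight (16 hr) compound treatment.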
# Tags describe the fitted curve by direction and shape.
# Chain of UniProt P06401 (P06401 whole entry, looked up): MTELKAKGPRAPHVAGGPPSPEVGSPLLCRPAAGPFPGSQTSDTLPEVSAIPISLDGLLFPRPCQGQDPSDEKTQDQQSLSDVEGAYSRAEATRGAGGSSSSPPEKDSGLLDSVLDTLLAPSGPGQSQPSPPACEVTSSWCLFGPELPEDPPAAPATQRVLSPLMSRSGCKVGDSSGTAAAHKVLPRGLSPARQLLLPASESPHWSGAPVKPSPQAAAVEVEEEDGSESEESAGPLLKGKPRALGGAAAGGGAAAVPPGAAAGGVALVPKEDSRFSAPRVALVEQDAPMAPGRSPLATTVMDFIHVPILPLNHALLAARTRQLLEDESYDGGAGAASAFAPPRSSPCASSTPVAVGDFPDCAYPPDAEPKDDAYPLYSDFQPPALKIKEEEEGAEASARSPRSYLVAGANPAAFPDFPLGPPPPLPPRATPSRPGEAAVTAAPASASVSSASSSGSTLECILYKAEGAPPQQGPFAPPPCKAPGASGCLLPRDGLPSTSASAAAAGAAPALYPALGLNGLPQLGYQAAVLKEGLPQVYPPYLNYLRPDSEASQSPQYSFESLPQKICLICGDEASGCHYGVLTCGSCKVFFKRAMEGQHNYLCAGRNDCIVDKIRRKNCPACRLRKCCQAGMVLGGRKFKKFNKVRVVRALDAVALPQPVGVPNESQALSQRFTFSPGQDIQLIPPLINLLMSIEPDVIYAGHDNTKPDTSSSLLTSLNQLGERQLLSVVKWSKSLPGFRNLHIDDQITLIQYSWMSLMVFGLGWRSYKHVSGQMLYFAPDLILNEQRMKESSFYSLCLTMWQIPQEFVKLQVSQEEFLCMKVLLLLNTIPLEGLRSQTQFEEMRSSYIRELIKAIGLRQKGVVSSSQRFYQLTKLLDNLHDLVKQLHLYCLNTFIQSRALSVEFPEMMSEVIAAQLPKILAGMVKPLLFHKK
# Chain of UniProt Q12809 (Q12809 whole entry, looked up): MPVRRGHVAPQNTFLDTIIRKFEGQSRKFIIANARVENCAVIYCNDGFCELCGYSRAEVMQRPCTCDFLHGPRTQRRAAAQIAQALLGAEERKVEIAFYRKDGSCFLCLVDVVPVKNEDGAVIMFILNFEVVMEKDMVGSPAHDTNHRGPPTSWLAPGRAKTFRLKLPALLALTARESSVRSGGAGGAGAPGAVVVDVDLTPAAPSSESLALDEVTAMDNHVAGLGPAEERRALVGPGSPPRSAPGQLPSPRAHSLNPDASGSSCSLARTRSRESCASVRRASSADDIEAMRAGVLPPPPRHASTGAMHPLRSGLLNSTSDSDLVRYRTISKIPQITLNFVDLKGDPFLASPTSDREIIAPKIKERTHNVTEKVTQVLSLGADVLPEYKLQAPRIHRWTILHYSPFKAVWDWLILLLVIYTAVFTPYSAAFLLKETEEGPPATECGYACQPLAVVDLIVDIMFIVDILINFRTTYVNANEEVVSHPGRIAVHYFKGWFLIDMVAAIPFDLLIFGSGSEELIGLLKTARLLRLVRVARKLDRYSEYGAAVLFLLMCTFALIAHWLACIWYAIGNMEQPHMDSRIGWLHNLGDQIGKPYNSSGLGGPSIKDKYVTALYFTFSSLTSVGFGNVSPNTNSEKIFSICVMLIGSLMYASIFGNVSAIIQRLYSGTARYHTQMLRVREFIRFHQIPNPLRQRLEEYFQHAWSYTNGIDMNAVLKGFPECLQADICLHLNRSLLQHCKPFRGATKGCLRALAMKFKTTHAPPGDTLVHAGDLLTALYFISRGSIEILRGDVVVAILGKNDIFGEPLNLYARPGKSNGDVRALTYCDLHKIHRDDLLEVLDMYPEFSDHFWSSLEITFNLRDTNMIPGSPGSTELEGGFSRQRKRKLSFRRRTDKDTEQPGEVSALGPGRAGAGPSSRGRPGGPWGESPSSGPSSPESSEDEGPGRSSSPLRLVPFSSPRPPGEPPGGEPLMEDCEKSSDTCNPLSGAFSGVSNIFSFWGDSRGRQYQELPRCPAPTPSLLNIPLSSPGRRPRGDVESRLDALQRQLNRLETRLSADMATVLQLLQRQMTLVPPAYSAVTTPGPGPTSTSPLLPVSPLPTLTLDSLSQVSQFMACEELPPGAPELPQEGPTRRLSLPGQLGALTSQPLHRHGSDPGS
# Chain of UniProt Q03181 (Q03181 whole entry, looked up): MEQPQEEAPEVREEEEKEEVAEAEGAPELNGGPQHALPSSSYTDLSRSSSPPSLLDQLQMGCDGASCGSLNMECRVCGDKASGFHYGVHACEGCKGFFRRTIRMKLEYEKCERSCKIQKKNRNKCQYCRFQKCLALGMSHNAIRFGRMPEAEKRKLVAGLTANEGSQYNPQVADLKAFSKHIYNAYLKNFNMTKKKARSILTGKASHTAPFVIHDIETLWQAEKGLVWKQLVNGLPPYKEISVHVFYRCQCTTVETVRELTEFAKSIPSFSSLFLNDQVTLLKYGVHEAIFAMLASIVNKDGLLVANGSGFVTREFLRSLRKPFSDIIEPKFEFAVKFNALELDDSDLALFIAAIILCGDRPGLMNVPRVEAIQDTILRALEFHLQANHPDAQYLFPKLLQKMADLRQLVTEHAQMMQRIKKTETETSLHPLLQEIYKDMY
# Chain of UniProt O75469 (O75469 whole entry, looked up): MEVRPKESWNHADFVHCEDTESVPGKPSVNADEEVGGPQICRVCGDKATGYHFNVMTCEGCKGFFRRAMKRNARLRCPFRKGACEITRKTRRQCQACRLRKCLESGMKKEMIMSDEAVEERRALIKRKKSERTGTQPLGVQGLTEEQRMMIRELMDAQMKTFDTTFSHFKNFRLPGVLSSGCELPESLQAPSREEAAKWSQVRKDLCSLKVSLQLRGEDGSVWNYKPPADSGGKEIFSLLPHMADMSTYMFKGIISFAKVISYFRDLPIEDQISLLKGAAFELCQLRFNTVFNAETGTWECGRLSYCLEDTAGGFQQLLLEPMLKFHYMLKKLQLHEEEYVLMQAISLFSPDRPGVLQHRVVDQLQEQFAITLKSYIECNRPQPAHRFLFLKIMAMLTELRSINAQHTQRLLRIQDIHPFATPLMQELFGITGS
# Chain of UniProt P16473 (P16473 whole entry, looked up): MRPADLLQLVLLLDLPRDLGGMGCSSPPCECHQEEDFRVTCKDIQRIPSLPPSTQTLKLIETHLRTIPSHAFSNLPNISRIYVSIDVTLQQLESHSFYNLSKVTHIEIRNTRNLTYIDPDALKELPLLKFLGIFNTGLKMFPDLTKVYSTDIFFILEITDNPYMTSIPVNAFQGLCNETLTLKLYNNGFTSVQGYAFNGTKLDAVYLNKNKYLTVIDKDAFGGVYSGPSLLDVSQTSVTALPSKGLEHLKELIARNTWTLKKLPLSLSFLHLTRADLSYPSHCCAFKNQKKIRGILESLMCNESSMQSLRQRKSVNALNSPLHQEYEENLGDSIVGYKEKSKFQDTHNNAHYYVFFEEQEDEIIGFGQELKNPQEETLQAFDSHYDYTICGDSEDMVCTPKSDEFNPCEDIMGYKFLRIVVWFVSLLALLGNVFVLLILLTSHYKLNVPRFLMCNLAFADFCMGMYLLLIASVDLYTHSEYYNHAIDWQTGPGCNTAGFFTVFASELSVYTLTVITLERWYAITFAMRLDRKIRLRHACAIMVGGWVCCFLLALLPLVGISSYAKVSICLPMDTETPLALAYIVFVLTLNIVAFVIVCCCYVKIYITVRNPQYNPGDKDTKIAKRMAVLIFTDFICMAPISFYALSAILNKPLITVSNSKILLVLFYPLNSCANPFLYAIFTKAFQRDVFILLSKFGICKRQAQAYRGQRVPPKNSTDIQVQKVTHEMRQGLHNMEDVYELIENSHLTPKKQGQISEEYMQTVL
structure (smiles),measurement,setting,value
CC(O)CN1CCN(CC(=O)[O-])CCN(CC(=O)[O-])CCN(CC(=O)[O-])CC1.[Gd+3] (stereo not given),Potency,[1],inactive
CCc1cc2c(s1)-n1c(C)nnc1CN=C2c1ccccc1Cl,Potency,[2],inactive
same,Potency,[1],"inconclusive: 21.3 µM [cytotoxic, partial curve, poor fit]"
same,Potency,[3],inactive
same,Potency,[4],"inconclusive: 26.8 µM [activator, single point]"
same,Potency,[5],"inconclusive: 26.8 µM [activator, single point]"
same,Potency,[6],inactive
CCN(CC)CCOC(=O)C(O)(c1ccccc1)c1ccccc1,Potency,[7],inactive
same,Potency,[8],inactive
same,Potency,[9],"inconclusive: 10.7 µM [inhibitor, partial curve]"
CC1N=C(N)OC1c1ccccc1 (stereo not given),Potency,[7],inactive
same,Potency,[8],inactive
same,Potency,[10],"inconclusive: 67.1 µM [cytotoxic, single point]"
Fc1cc(Br)ccc1CBr,Potency,[6],inactive
same,Potency,[11],"inconclusive: 33.5 µM [rising, partial curve, poor fit]"
O=[N+]([O-])c1cc(Cl)c(Cl)cc1Cl,Potency,[4],"inconclusive: 54.7 µM [activator, single point]"
CCCCCBr,Potency,[1],"inconclusive: 68.7 µM [cytotoxic, single point]"
same,Potency,[7],inactive
same,Potency,[5],inactive
same,Potency,[6],"inconclusive: 68.7 µM [cytotoxic, single point]"
same,Potency,[12],inconclusive: 76.5 µM
same,Potency,[11],inactive
CCn1cc[n+](C)c1 (tested in a mixture with another compound),Potency,[13],inactive
same,Potency,[1],inactive
same,Potency,[11],inactive
CN(C)C1CCCCC1,Potency,[1],"inconclusive: 19.3 µM [rising, partial curve]"
same,Potency,[6],"inconclusive: 19.3 µM [rising, partial curve]"
same,Potency,[9],inactive
C[C@H](N)C(=O)c1ccccc1,Potency,[2],inactive
same,Potency,[3],"inconclusive: 0.0103 µM [activator, full curve, poor fit]"
CCC1(c2cccc(O)c2)CCCCN(C)C1 (stereo not given),Potency,[4],inactive
C[N+]1(C)[C@@H]2CC[C@H]1CC(OC(=O)C(CO)c1ccccc1)C2 (stereo not given in full),Potency,[14],inactive
CC(C)CC(N(C)C)C1(c2ccc(Cl)cc2)CCC1 (stereo not given),Potency,[13],"inconclusive: 0.124 µM [rising, partial curve]"
same,Potency,[1],inactive
same,Potency,[3],"inconclusive: 26.8 µM [activator, single point]"
same,Potency,[7],"inconclusive: 26.8 µM [activator, single point]"
same,Potency,[5],"inconclusive: 23.9 µM [activator, single point]"
same,Potency,[12],"inconclusive: 26.6 µM [falling, partial curve, poor fit]"
same,Potency,[9],"inconclusive: 23.9 µM [inhibitor, partial curve]"
ClCCN1CCOCC1,Potency,[11],inactive
BrCCc1ccccc1,Potency,[13],inactive
CC(C)CON=O,Potency,[2],"inconclusive: 21 µM [rising, single point]"
same,Potency,[13],"inactive and inconclusive: 329 nM [cytotoxic, single point]"
same,Potency,[15],inactive
CN(C)N,Potency,[3],"inconclusive: 54.9 µM [activator, single point]"
same,Potency,[4],"inconclusive: 21.9 µM [activator, single point]"
same,Potency,[7],"inconclusive: 54.9 µM [activator, single point]"
same,Potency,[5],"inconclusive: 21.9 µM [activator, partial curve, poor fit]"
O=[N+]([O-])c1cccc(CCl)c1,Potency,[3],inactive
C/C=C/CC#N,Potency,[2],inactive
same,Potency,[1],inactive
same,Potency,[4],"inconclusive: 56.2 µM [activator, single point]"
same,Potency,[5],"inconclusive: 56.2 µM [activator, single point]"
same,Potency,[15],"inconclusive: 31.4 µM [activator, partial curve]"
CN(C)C(=O)Nc1cccc(C(F)(F)F)c1,Potency,[16],inactive
C#CC(O)(C=CCl)CC (stereo not given),Potency,[13],inactive
ClCC(Cl)(Cl)Cl,Potency,[4],inactive
same,Potency,[16],inactive
ClC(Cl)C(Cl)Cl,Potency,[3],"inconclusive: 55.4 µM [activator, single point]"
same,Potency,[7],"inconclusive: 55.4 µM [activator, single point]"

# — PubChem BioAssay (Tox21)
